Test results taken from PubChem BioAssay AID588689 (Southern Research Specialized Biocontainment Screening …, 2011).
“And” between values parts separate entries of the source, which are not always exact repeats. Equal values may be shown once. About 1,000 (0.29%) of roughly 340,000 compounds were called active. The shares of active, inactive and inconclusive entries below differ from those in the screen. Cut-off read from the data, not from the text of the source: inconclusive = inhibition above about 29% without an active follow-up result; inactive = below that.

What follows are compounds tested against Genome polyprotein (Dengue virus type 2 (strain 16681-PDK53)) (UniProt P29991) (assay: Dengue-2 NS5 methyltransferase inhibitors, primary screen, biochemical, confirmation dose response (AID 588689)). Details: Dengue-2 NS5 methyltransferase capping enzyme assay, at 25 µM, active compounds read high.

Structure (SMILES) | inhibition
O=C(N/N=C/c1cc(Cl)cc(Cl)c1O)c1ccncc1 | inconclusive: 200%
CCc1cc(C(=O)Nc2ccc(OC)nc2)sc1C | inconclusive: 55.7%
CSc1nc(O)c(C(c2ccccc2)c2c(O)nc(SC)[nH]c2=O)c(=O)[nH]1 | inactive: -1.55%
O=C(NCc1cc(C(F)(F)F)ccc1Cl)c1cccc2c1C(=O)c1ccc(N3CCC(Cc4ccccc4)CC3)cc1S2(=O)=O | inconclusive: 62.5%
Cn1c(=O)[nH]c2cc(Cl)cnc21 | inconclusive: 39.8%
Nc1oc2ccc(F)cc2c(=O)c1C=O | inconclusive: 152%
CC(=NNC(=O)c1ccncc1)c1ccc2ccccc2c1O | inconclusive: 41.8%
N#CC1=C(N)Oc2cc(O)c(Cl)cc2C1c1ccccc1F (stereo not given) | inconclusive: 172%
Cc1nc(S/C(=C/c2ccc(-c3cccc(Cl)c3)o2)C(=O)O)n[nH]1 | inconclusive: 49.4%
O=C(O)c1ccc(N2C(=O)/C(=C/c3ccc(-c4ccc([N+](=O)[O-])cc4)o3)C=C2c2ccccc2)cc1 | inconclusive: 66.3%
Oc1[nH]c2ccccc2c1N=Nc1ccccc1F | inconclusive: 66.8%
CCOc1ccc(N2C(=O)CC(N(Cc3ccco3)C(=O)CCC(=O)O)C2=O)cc1 (stereo not given) | inactive: -7.79%
Cc1ccc(NC(=O)/C(C#N)=C(\N)C(Cl)(Cl)Cl)nc1 | inconclusive: 36%
Cc1ccc(S(=O)(=O)/N=C2/C=C(Sc3ncn[nH]3)C(=O)c3ccccc32)cc1 | inconclusive: 81.9%
O=c1[nH][nH]c2c(N=Cc3ccccc3O)ccc(F)c12 | inconclusive: 48.2%
Cc1ccc(CNC(=O)C(C)C2Sc3ccccc3NC2=O)cc1 (stereo not given) | inactive: 3.04%
Cc1cccc(C)c1N(CC(=O)Nc1cccc(N(C)S(C)(=O)=O)c1)S(C)(=O)=O | inconclusive: 47.5%
O=c1[nH]c(CN2CCN(c3ccccc3)CC2)nc2scc(-c3ccccc3)c12 | inconclusive: 49.8%
Cc1cc(C2C(C#N)=C(N)SC(N)=C2C#N)c(C)s1 | inconclusive: 113%
O=C(Nc1ccnn1C1CCN(C2CCCCC2)CC1)c1ccccc1 | inconclusive: 31.2%
CC(=O)NC1=NN(C(C)=O)C(c2ccc(C(C)C)cc2)S1 (stereo not given) | inactive: 0.65%
COc1ccc2ccccc2c1C(O)c1nccn1C (stereo not given) | inconclusive: 172%
CN(C)CCC(c1ccc(Cl)cc1)c1ccccn1 (stereo not given) | inconclusive: 88.6%
Nc1ccc2nc3c(=O)n(C4CCCCC4)c(=O)[nH]c3nc2c1 | inconclusive: 69.9%
COc1ccc(/C=C2\SC(=S)N(NS(=O)(=O)c3ccccc3)C2=O)c(OC)c1 | inconclusive: 64%
CN1CCN(C2=C(Cl)C(=O)C(c3cnc(N4CCCCC4)s3)=C(Cl)C2=O)CC1 | inconclusive: 83.3%
COc1ccc(C2OC34CCCCC3C(C#N)(C#N)C2(C#N)C(=N)O4)cc1 (stereo not given) | inconclusive: 96.2%
CC1=NN(c2ccccc2)C(=O)/C1=C\c1cc(C)n(C)c1C | inactive: 0%

Structure (SMILES) | inhibition
O=Cc1cccn1-c1ccc(O)cc1 | inactive: -5.89%
COc1cc(/C=C(/C#N)C(=O)Nc2ccccc2)ccc1OCc1ccc(C(=O)O)cc1 | inconclusive: 51.3%
CN1CCC(N(C)C(=O)/C(C#N)=C/c2ccc(OC(F)F)cc2)CC1 | inconclusive: 34.2%
COc1ccc2c(C=Nc3c(C)n(C)n(-c4ccccc4)c3=O)c(O)n(Cc3ccco3)c(=O)c2c1 | inconclusive: 33.9% and inconclusive: 34.4%
O=C(CN1C(=O)COc2ccc(Cl)cc21)N1CCc2ccccc21 | inactive: -2.43%
Cc1cn([C@H]2C[C@H](N=[N+]=[N-])[C@@H](CO)O2)c(=O)[nH]c1=O | inconclusive: 153%
NC(=O)c1cc2c3ccccc3ccn2c1-c1ccccc1 | inconclusive: 39%
N#Cc1c(-c2cccc(Br)c2)cc(-c2ccco2)[nH]c1=O | inconclusive: 39.9%
N=c1c(C(=O)NC2CCCCC2)cc2c(=O)n3ccccc3nc2n1Cc1ccc(F)cc1 | inconclusive: 79%
CN1/C(=C\C=C2/SC(=S)N(CC(=O)O)C2=O)C(C)(C)c2ccccc21 | inconclusive: 180%
CC(C)n1cc(/C=C/c2cc[n+](C)cc2)c2ccccc21 | inconclusive: 44.9%
COCCCNC(=O)/C=C/c1c(Cl)cccc1Cl | inactive: -0.74%
CCCC1C2CN(C(C)C)CC=C2C(C#N)=C(N)C1(C#N)C#N (stereo not given) | inconclusive: 66.8%
O=C(O)CCNc1cc(N2CCN(C(=O)c3ccco3)CC2)c2noc3c2c1C(=O)c1ccccc1-3 | inconclusive: 153%
CSC1=NSC2=NC(=O)/C(=C/c3coc4ccccc4c3=O)C(=N)N12 | inconclusive: 152%
COc1cccc(CNC(=O)COC(=O)/C(C#N)=C/c2ccc(N(C)C)cc2)c1 | inconclusive: 91.8%
Cc1ccc(S(=O)(=O)C(C#N)c2nc3ccccc3nc2N2CC(C)OC(C)C2)cc1C (stereo not given) | inconclusive: 73.1%
Cc1cccc(C(=O)Nc2sc3c(c2C(=O)O)CCCC3)c1 | inactive: 2.61%
Cc1ccc(N2C3=C(C(=O)CC(C)(C)C3)C(c3cn(C)nc3C)C3=C2CC(C)(C)CC3=O)cc1 | inconclusive: 152%
COc1ccc(N2C(=O)[C@@H]3[C@H](C2=O)[C@H]2c4ccccc4C=CN2[C@@H]3C(=O)Nc2ccccc2)cc1 | inconclusive: 128%
Cc1ccc(Cl)c2c(N=Nc3ccccc3)c(O)[nH]c12 | inconclusive: 87.6%
CCOC(=O)C1=C(C)NC(=O)/C1=C\N(C)C | inconclusive: 56.4%
CC(=O)Nc1ccccc1NC(=O)COc1cccc2ccccc12 | inactive: -2.63%
CC1=C(C(=O)Nc2cccc(C(=O)NC(C)c3ccccc3)c2)SCCO1 (stereo not given) | inactive: -4.13%
O=C(O)c1cc(Cl)c2c(c1)[C@@H]1C=CC[C@@H]1[C@H](c1ccc(S(=O)(=O)N3CCOCC3)cc1)N2 | inconclusive: 69.6%
Cc1cc(N)ccc1N1CCCC1 | inconclusive: 62.6%
C/C(=N\NC(=S)NCCc1ccccc1)c1cccs1 | inconclusive: 29.8%
